{
  "source": "ChEMBL document CHEMBL4888484",
  "about": "“Replenishing the malaria drug discovery pipeline: Screening and hit evaluation of the MMV Hit Generation Library 1 (HGL1) against asexual blood stage Plasmodium falciparum ,using a nano luciferase reporter read-out” (2022)",
  "note": "The whole screen tested about 150,000 compounds, of which about 540 (0.36%) showed an effect of 50% or more. Some of the results follow.",
  "data": [
    {"test_system": "Plasmodium falciparum", "assay": "Primary screen in NF54 nanoGlo assay, in single point, at 2uM, 72h; a lower Z score goes with more inhibition", "assay_type": "functional, Erythrocyte", "conditions": "timepoint 72 hour", "units": {"% Inhibition": "%"}, "values": [
      {"smiles": "Cn1c([C@H]2CCN(C(=O)c3cnccn3)C2)nc2ccccc21", "% Inhibition": -9, "Z score": 1.14},
      {"smiles": "CCN(CC(=O)Nc1ccc(OC)cc1)CC(=O)Nc1cccc(S(=O)(=O)N2CCOCC2)c1", "% Inhibition": 6, "Z score": -0.7},
      {"smiles": "CC(C)Cc1ccccc1CNC(=O)Nc1cc([C@H]2CCCOC2)nn1C", "% Inhibition": -9, "Z score": 1.23},
      {"smiles": "CN(C)S(=O)(=O)c1cccc(C(=O)N2CCC[C@H](OCC3CC3)C2)c1", "% Inhibition": -3, "Z score": 0.65},
      {"smiles": "Nc1nnc(C2CCN(Cc3c(F)cccc3F)CC2)o1", "% Inhibition": 11, "Z score": -1.23},
      {"smiles": "COc1ccc(-c2cc(C(=O)OC[C@H]3CCCO3)c3ccccc3n2)cc1", "% Inhibition": -3, "Z score": 0.5},
      {"smiles": "O=S(=O)(c1ccc(Cl)s1)n1ccnc1", "% Inhibition": -3, "Z score": 0.48},
      {"smiles": "O=C(NCc1ccc(C(=O)N2CCN(c3nccs3)CC2)cc1)c1cccs1", "% Inhibition": -8, "Z score": 1.57},
      {"smiles": "Cc1ccc2c(c1)-c1c(ssc1=S)C(C)(C)N2CC(=O)c1ccccc1", "% Inhibition": -5, "Z score": 0.56},
      {"smiles": "CCOc1ccc(NC(=O)c2c(-c3ccccc3)nnc3ccc(C)cc23)cc1", "% Inhibition": 2, "Z score": -0.27},
      {"smiles": "COc1ccccc1-c1cnoc1-c1ccc(OCc2ccc(C)cc2)cc1O", "% Inhibition": 7, "Z score": -1.06},
      {"smiles": "Cn1cc(-c2ccc(Cl)cc2)c2ncn(CC(=O)NC3CCCC3)c(=O)c21", "% Inhibition": 30, "Z score": -3.99},
      {"smiles": "CN1CCCN(C(=O)c2cccnc2Oc2cccc(Br)c2)CC1", "% Inhibition": -3, "Z score": 0.57},
      {"smiles": "Oc1ccc(Cn2ccnc2-c2cc3n(n2)CCCNC3)cc1", "% Inhibition": -13, "Z score": 1.56},
      {"smiles": "O=C(N[C@H](c1ccccc1)C1CC1)C(c1ccccc1)c1ccccc1", "% Inhibition": 42, "Z score": -1.81},
      {"smiles": "COCCN(C[C@H](O)C(F)(F)F)C(=O)c1cc(C)c(F)c(C)c1", "% Inhibition": 4, "Z score": -0.53},
      {"smiles": "Cc1ccc(C2(c3noc([C@@H]4CC[C@H](C)O4)n3)CCOCC2)cc1", "% Inhibition": -17, "Z score": 1.67},
      {"smiles": "C[C@@H]1CCN[C@H](C(F)(F)F)[C@@H]1NC(=O)C(F)(F)F", "% Inhibition": -11, "Z score": 1.78},
      {"smiles": "Cc1cccn2c(CNC(=O)N(C)[C@H](c3ccccn3)C3CC3)cnc12", "% Inhibition": 14, "Z score": -2.57},
      {"smiles": "CN(C1CCCCC1)S(=O)(=O)N1CCC2(CC1)C[C@@H]2c1nnc(-c2ccccc2)o1", "% Inhibition": 0, "Z score": 0.01},
      {"smiles": "Cc1n[nH]c(=O)nc1NCc1cccnc1", "% Inhibition": 0, "Z score": -0.01},
      {"smiles": "CCc1nnc2sc(-c3cc(-c4ccccc4)nc4ccccc34)nn12", "% Inhibition": -1, "Z score": 0.16},
      {"smiles": "COC[C@@H]1CN(C(=O)c2cscn2)C[C@H]1c1ccccn1", "% Inhibition": -14, "Z score": 2.4},
      {"smiles": "Cc1nnc(-c2ccccc2C[C@H]2CCCCO2)s1", "% Inhibition": -12, "Z score": 2.43},
      {"smiles": "O=C(COc1cccc(-n2cnnc2)c1)Nc1nc(C2CC2)n[nH]1", "% Inhibition": -10, "Z score": 1.12},
      {"smiles": "CC1CCN(C(=O)[C@H]2CCCN(C(=O)c3nnc(C(=O)Nc4ccc5c(c4)OCO5)s3)C2)CC1", "% Inhibition": -8, "Z score": 0.71},
      {"smiles": "Cc1nnc(CNC(=O)CCC(C)(C)C)o1", "% Inhibition": -8, "Z score": 0.9},
      {"smiles": "CN(C(=O)c1cc(C2CC2)on1)[C@H]1CCN(Cc2ccccc2)C1", "% Inhibition": -7, "Z score": 0.96},
      {"smiles": "COC[C@@](C)(O)CNC(=O)C(=O)NCc1ccc(C)cc1", "% Inhibition": -12, "Z score": 1.71},
      {"smiles": "Cc1ccc2nc(N3CCC(O)CC3)c(CN(C[C@H]3COc4ccccc4O3)C(=O)C3CCCCC3)cc2c1", "% Inhibition": -5, "Z score": 0.86},
      {"smiles": "COC(=O)[C@]1(C)CN(C(=O)Nc2ccncn2)C[C@H]1C", "% Inhibition": -2, "Z score": 0.27},
      {"smiles": "COCCN(Cc1csc(COc2ccccc2C(C)C)n1)S(=O)(=O)c1ccc(C)cc1", "% Inhibition": -8, "Z score": 1.48},
      {"smiles": "COCCn1c(N)c(N(Cc2ccccc2)C(=O)c2cc(OC)ccc2OC)c(=O)[nH]c1=O", "% Inhibition": -2, "Z score": 0.28},
      {"smiles": "COCC(=O)Nc1cc(C(=O)N(C)C[C@H](C)CN2CCCC2)cc2nc(-c3ccccc3)n(C)c12", "% Inhibition": -2, "Z score": 0.34},
      {"smiles": "c1ccc(Oc2cccc([C@@H]3c4cccn4CCCN3Cc3ccco3)c2)cc1", "% Inhibition": -4, "Z score": 0.52},
      {"smiles": "c1coc(-c2nnc(CN(CC3CCCO3)CC3CCCO3)o2)c1", "note": "(stereo unspecified)", "% Inhibition": -2, "Z score": 0.33},
      {"smiles": "C[C@@H](CNC(=O)NCc1nccc(C(F)(F)F)n1)N(C)C1CC1", "% Inhibition": -2, "Z score": 0.21},
      {"smiles": "CCn1cccc1-c1nc(C)c(C(=O)NCCc2ccc(Cl)cc2)s1", "% Inhibition": 0, "Z score": -0.05},
      {"smiles": "CCN1CCC[C@](C)(C(=O)N2CCN(c3ccc4nccn4n3)CC2)C1", "% Inhibition": -6, "Z score": 1.16},
      {"smiles": "c1csc(-c2cc(CN3CCC[C@H](Cn4cncn4)C3)no2)c1", "% Inhibition": -10, "Z score": 1.31},
      {"smiles": "Cc1cc(-n2cncn2)ccc1C(=O)N1CCC[C@@H]1COc1ccc(F)cc1", "% Inhibition": -6, "Z score": 0.83},
      {"smiles": "CC(C)c1scnc1NC(=O)NC[C@](C)(O)c1cccc(F)c1", "% Inhibition": 8, "Z score": -1.53},
      {"smiles": "COCCN(Cc1c(C)nn(-c2ccccc2)c1Oc1cccc(F)c1)C[C@H](O)CN1CCOCC1", "% Inhibition": -4, "Z score": 0.57},
      {"smiles": "C[C@]1(CO)C2CC[C@@H](O)[C@@H](CC(=O)N3CCC[C@H]3CO)[C@]2(C)CC[C@H]1OC(=O)Nc1ccccc1", "note": "(stereo partly specified)", "% Inhibition": 1, "Z score": -0.15},
      {"smiles": "OC[C@H]1C=C[C@@H](Nc2cnc3ccccc3n2)C1", "% Inhibition": -4, "Z score": 0.41},
      {"smiles": "O=C(c1ccc2ncsc2c1)N1CCC(n2cnc3ncccc3c2=O)CC1", "% Inhibition": -14, "Z score": 2.42},
      {"smiles": "CN1CCC[C@H]1c1nc(C2CN(C(=O)CCC3CCCC3)C2)no1", "% Inhibition": 9, "Z score": -1.03},
      {"smiles": "Cn1cc(Br)c(CNc2nnc(C3CCCCC3)o2)n1", "% Inhibition": -1, "Z score": 0.09},
      {"smiles": "CNC(=O)[C@H]1c2nnc(C)n2CCN1C(=O)Cc1cccc(F)c1", "% Inhibition": -14, "Z score": 1.69},
      {"smiles": "CN1CCCN(C(=O)[C@H]2CC23CCN(Cc2cccs2)CC3)CC1", "% Inhibition": -11, "Z score": 1.43},
      {"smiles": "CCN(CC(=O)NCc1cccnc1-n1cnc2ccccc21)C1CC1", "% Inhibition": -11, "Z score": 1.51},
      {"smiles": "Cc1ccccc1CNC(=O)[C@H]1CCCN(c2nc3ccc(Br)cc3[nH]2)C1", "% Inhibition": -3, "Z score": 0.57},
      {"smiles": "CC(C)CC1(C(=O)NCc2nnc3n2CCC3)CCC1", "% Inhibition": -8, "Z score": 0.8},
      {"smiles": "CC(=O)N[C@H](c1ccc(F)cc1F)C(C)(C)C", "% Inhibition": 7, "Z score": -0.89},
      {"smiles": "CN1CCN(C(C)(C)CNC(=O)CCc2cn[nH]c2)CC1", "% Inhibition": 8, "Z score": -1.16},
      {"smiles": "Cc1cc(Cl)ccc1CN(C)CC(C)(C)S(C)(=O)=O", "% Inhibition": -9, "Z score": 0.82},
      {"smiles": "Cc1cccc(Cl)c1S(=O)(=O)NC[C@H](O)CN(C)C", "% Inhibition": -3, "Z score": 0.41},
      {"smiles": "CCOc1ncccc1-c1ccc(C(N)=O)cn1", "% Inhibition": -5, "Z score": 0.68},
      {"smiles": "CCCc1nnc(C(=O)N2CCC[C@@](CO)(CC(C)C)C2)o1", "% Inhibition": 8, "Z score": -1.59},
      {"smiles": "COCC1CCN(C(=O)C[C@H](C)C(=O)c2cccc(F)c2)CC1", "% Inhibition": -11, "Z score": 1.13},
      {"smiles": "CCC(C)C(NC(=O)c1cc(C)c(F)cc1Cl)C(N)=O", "note": "(stereo unspecified)", "% Inhibition": -9, "Z score": 1.23},
      {"smiles": "COc1cccc(NC(=O)Cn2nc3c(N4CCCC4)nccn3c2=O)c1", "% Inhibition": 3, "Z score": -0.53},
      {"smiles": "Cc1n[nH]c(C)c1Cc1nc(CN2CCN(C)CC2)no1", "% Inhibition": 5, "Z score": -0.66},
      {"smiles": "N#Cc1ccc(-c2ccc(Oc3nccnc3C#N)cc2)cc1", "% Inhibition": -14, "Z score": 2.24},
      {"smiles": "Cc1nc2c(NC(=O)[C@H]3CCCO3)cccc2o1", "% Inhibition": 12, "Z score": -1.44},
      {"smiles": "CC1CN(CCNCc2csc(C(C)(C)C)n2)CC(C)O1", "note": "(stereo unspecified)", "% Inhibition": -18, "Z score": 2.09},
      {"smiles": "COc1ccc(C(=O)N2C[C@@H](O)C[C@H]2c2nnc3n2CCN(C(=O)C(C)C)C3)cn1", "% Inhibition": -1, "Z score": 0.1},
      {"smiles": "Cc1cc(C)c(C#N)c(N2CCC[C@H](c3nccn3CC3CC3)C2)n1", "% Inhibition": -6, "Z score": 0.8},
      {"smiles": "O=C(NCc1cccc2nsnc12)C1(C(=O)NC2CC2)CCC1", "% Inhibition": -6, "Z score": 0.69},
      {"smiles": "CC(C(=O)Nc1ccc(N2CCOCC2)cc1)N1CCCC(C(=O)Nc2ccc(Cl)cn2)C1", "note": "(stereo unspecified)", "% Inhibition": -17, "Z score": 3.22},
      {"smiles": "CC(=O)N(c1nc(CN(C)[C@H](c2ccccc2)C(F)(F)F)cs1)C1CC1", "% Inhibition": -3, "Z score": 0.46},
      {"smiles": "O=C(CCNc1ncccn1)N1CCN(Cc2ccc(-c3cccc(Cl)c3)s2)CC1", "% Inhibition": -7, "Z score": 1.41},
      {"smiles": "O=C(NC1CCOC(c2cccnc2)C1)N1CCCc2ccccc2CC1", "note": "(stereo unspecified)", "% Inhibition": -8, "Z score": 1.28},
      {"smiles": "N#CCc1ccc(NCc2cnc3ccc(Br)cn23)cc1", "% Inhibition": -10, "Z score": 0.93},
      {"smiles": "CC(C)(C)OC(=O)c1ccc(C#N)cc1", "% Inhibition": -7, "Z score": 1.13},
      {"smiles": "CCOc1ccc(-n2nnc(C)c2C(=O)N2CCC(C(N)=O)CC2)cc1", "% Inhibition": -18, "Z score": 1.63},
      {"smiles": "O=C(c1ccccc1-c1ccccc1)N1CCc2ccccc2C1", "% Inhibition": -8, "Z score": 1.08},
      {"smiles": "CCN(C(=O)c1ccoc1C)[C@H]1CCS(=O)(=O)C1", "% Inhibition": -4, "Z score": 0.73},
      {"smiles": "CC[C@H](NCC(=O)NC(=O)NC)C(C)(C)c1ccccc1", "% Inhibition": -13, "Z score": 1.35},
      {"smiles": "CCOc1ccc(CNC(=O)C[C@H](C)S(=O)(=O)c2cc3c(cc2C)NC(=O)CO3)cc1OC", "% Inhibition": -15, "Z score": 1.82},
      {"smiles": "CCc1nccc(-c2nccn2Cc2csc(C)n2)n1", "% Inhibition": -2, "Z score": 0.47},
      {"smiles": "Cc1cnc(NC(=O)c2sc(Nc3cc(Cl)ccc3F)nc2N)o1", "% Inhibition": 5, "Z score": -0.61},
      {"smiles": "COc1ccnc(-c2cccc(C(=O)N3CCCC4(CCOCC4)C3)c2)n1", "% Inhibition": -13, "Z score": 2.14}
    ]}
  ]
}
